Hit rate of the full screen: of about 39,000 compounds, about 220 (0.56%) showed activity. The list shows a part of the results.
Test system: Escherichia coli K-12 BW25113
Assay: relative growth (OD600 normalised to plate interquartile mean) (fraction); higher = less growth inhibition, active = 0.2 or less
Settings: 50 µM; LB; incubation time: overnight (16-24 h)
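Note: static incubation at 37 °C against the wild-type strain, values averaged over two biological replicates.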

Structure (SMILES) | relative growth
COC(=O)[C@@H]1C(=O)NC[C@H]1c1cccnc1 | inactive: 0.996
CN1C(=O)[C@@H](O)N(c2ccccc2)C1=O | inactive: 1.02
CC(=O)c1ccc(OCc2c(-c3ccccc3)nnn2CC(=O)NS(=O)(=O)Cc2ccccc2)cc1 | inactive: 1.01
COc1ccc(NC(=O)Nc2ccc3c(c2)CC(=O)N([C@H](C)CO)C[C@H](C)[C@@H](CN(C)Cc2ccc(Cl)c(Cl)c2)O3)cc1 | inactive: 0.999
C[C@@H]1CN([C@@H](C)CO)C(=O)c2cc(C#CC3(O)CCCC3)cnc2O[C@@H]1CN(C)C(=O)CN(C)C | inactive: 1.02
COCCNC(=O)C[C@@H]1CC[C@@H]2[C@H](COC[C@H](O)CN2S(=O)(=O)c2ccccc2C)O1 | inactive: 0.986
C[C@@H]1CN([C@H](C)CO)C(=O)c2c(c3ccccc3n2C)-c2ccccc2CO[C@H]1CN(C)C(=O)Nc1cccc(F)c1 | inactive: 1.04
C[C@H](CO)N1C[C@H](C)[C@@H](CN(C)Cc2ccc(C(=O)O)cc2)Oc2c(NS(=O)(=O)c3cn(C)cn3)cccc2C1=O | inactive: 0.989
C[C@@H]1CN([C@H](C)CO)C(=O)Cc2cc(NC(=O)Cc3ccccc3)ccc2O[C@@H]1CN(C)Cc1ccc(Oc2ccccc2)cc1 | inactive: 0.998
C[C@@H]1CN([C@@H](C)CO)C(=O)c2cc(-c3cccc(C(=O)N(C)C)c3)cnc2O[C@H]1CN(C)S(=O)(=O)c1ccc(F)cc1 | inactive: 1
COc1ccc(S(=O)(=O)Nc2ccc3c(c2)CC(=O)N([C@@H](C)CO)C[C@H](C)[C@@H](CN(C)Cc2ccc(-c4ccccc4)cc2)O3)cc1 | inactive: 0.998
COc1ccc2c3c(n(c2c1)C)[C@@H](CO)N(C[C@]13CCN(CC1)S(=O)(=O)C)C(=O)CN(C)C | inactive: 0.962
COc1ccc(S(=O)(=O)Nc2ccc3c(c2)C(=O)N([C@H](C)CO)C[C@@H](C)[C@H](CN(C)Cc2ccc4c(c2)OCO4)OCCCC[C@H](C)O3)cc1 | inactive: 0.988
C[C@@H]1CN([C@H](C)CO)C(=O)c2c(c3ccccc3n2C)-c2ccccc2CO[C@H]1CN(C)C(=O)Nc1cccc(Cl)c1Cl | inactive: 1.02
CNC[C@H]1OCCCC[C@@H](C)Oc2ccc(NS(=O)(=O)c3cn(C)cn3)cc2C(=O)N([C@H](C)CO)C[C@@H]1C | inactive: 0.992
O=C(C[C@H]1C=C[C@H](NC(=O)CN2CCOCC2)[C@@H](CO)O1)NC1CCC1 | inactive: 1.01
COc1cccc(S(=O)(=O)N2C[C@H](O)COC[C@@H]3O[C@H](CC(=O)N4CCOCC4)CC[C@H]32)c1 | inactive: 0.991
Cc1noc(C)c1S(=O)(=O)Nc1ccc2c(c1)CC(=O)N([C@H](C)CO)C[C@@H](C)[C@@H](CN(C)Cc1ccncc1)O2 | inactive: 1.01
C[C@@H]1CN([C@H](C)CO)C(=O)CCCn2nncc2CO[C@H]1CN(C)C(=O)Nc1cccc(Oc2ccccn2)c1 | inactive: 0.935
Cc1noc(C)c1NC(=O)N(C)C[C@@H]1OCCCC[C@H](C)Oc2ccc(NC(=O)Nc3ccc(C(F)(F)F)cc3)cc2C(=O)N([C@@H](C)CO)C[C@H]1C | inactive: 1.02

Structure (SMILES) | relative growth
CO[C@@H]1CN(C)C(=O)c2cc(NS(=O)(=O)CC(F)(F)F)ccc2OC[C@H](C)N(C(=O)NC(C)C)C[C@H]1C | inactive: 1
C[C@H]1CN([C@@H](C)CO)C(=O)c2cccc(NC(=O)Nc3ccc(C(F)(F)F)cc3)c2O[C@@H]1CN(C)S(C)(=O)=O | inactive: 0.934
C[C@H]1CC/C=C\[C@H]2O[C@@]34C=CCN(c5ccc6ccccc6c5)C(=O)[C@H]3N(CCCO)C(=O)[C@@H]4[C@@H]2C(=O)O1 | inactive: 0.969
C[C@H]1CCCCO[C@@H](CN(C)C(=O)Nc2ccc3c(c2)OCO3)[C@@H](C)CN([C@@H](C)CO)C(=O)c2cc(NC(=O)c3ccccc3)ccc2O1 | inactive: 1.02
C[C@@H]1CN([C@H](C)CO)S(=O)(=O)c2ccc(C#Cc3ccccn3)cc2O[C@@H]1CN(C)Cc1ccccc1 | inactive: 1.03
C[C@H](CO)N1C[C@H](C)[C@H](CN(C)Cc2ccc(Cl)c(Cl)c2)Oc2c(NC(=O)Nc3ccc4c(c3)OCO4)cccc2C1=O | inactive: 1
O=C(C[C@H]1C=C[C@@H](NC(=O)c2ccc3c(c2)OCO3)[C@@H](CO)O1)NCc1ccc(Oc2ccccc2)cc1 | inactive: 1.01
Cc1noc(C)c1NC(=O)N(C)C[C@@H]1OCCCC[C@H](C)Oc2ccc(NS(=O)(=O)c3ccc(Cl)cc3)cc2C(=O)N([C@H](C)CO)C[C@@H]1C | inactive: 1
O=C(C[C@H]1CC[C@H]2[C@@H](COC[C@@H](O)CN2S(=O)(=O)c2ccc(Cl)cc2)O1)N1CCc2ccccc2C1 | inactive: 1.03
OCCN1CNC(=S)NC1 | inactive: 0.983
COc1ccc(NC(=O)Nc2ccc3c(c2)C(=O)N([C@H](C)CO)C[C@@H](C)[C@H](CN(C)CC2CCCCC2)O3)cc1 | inactive: 1.01
C[C@H]1CN([C@@H](C)CO)S(=O)(=O)c2ccc(C3=CCCC3)cc2O[C@@H]1CN(C)S(=O)(=O)c1ccc(F)cc1 | inactive: 1.02
O=C(N[C@H]1CC[C@@H](CC(=O)N2CCOCC2)O[C@H]1CO)c1ccccn1 | inactive: 1
O=C1/C(=C/c2cn(-c3ccccc3)nc2-c2ccc(OCc3ccc(Cl)cc3)cc2)SC(=S)N1CCS(=O)(=O)O | inactive: 0.994
C[C@H](CO)N1C[C@H](C)[C@H](CN(C)S(C)(=O)=O)Oc2ccc(N(C)C)cc2C1=O | inactive: 0.99
O=C(O)COCC(=O)Nc1cnccn1 | inactive: 0.972
C[C@H](CO)N1C[C@H](C)[C@@H](CN(C)C(=O)Cc2ccccc2)OCCCC[C@H](C)Oc2ccc(NC(=O)Nc3ccc(C(F)(F)F)cc3)cc2C1=O | inactive: 1.02
C[C@H]1CN([C@@H](C)CO)C(=O)Cc2cc(NC(=O)Nc3ccc(F)cc3)ccc2O[C@@H]1CN(C)Cc1ccc(Cl)c(Cl)c1 | inactive: 0.993
C[C@@H]1CN([C@H](C)CO)C(=O)Cc2cc(NC(=O)Nc3cccc4ccccc34)ccc2O[C@@H]1CN(C)S(=O)(=O)c1ccc(F)cc1 | inactive: 1.02

From the supplement of paper PMC9446081
